# Measured values published in a collection of fitness landscapes (doi:10.1038/s41467-024-54723-y).
# The full ranking holds about 18,000 sequences; the median of “TetR repression strength (sort-seq, GFP reporter)” is about 0.23, and the highest 2% start at about 0.68. The list shows a part of the results.
# Biological target: TetR (class B, Tn10) (UniProt P04483)
# Assay: TetR repression strength (sort-seq, GFP reporter) (relative to tetO2 = 1); higher = stronger repression
# Details: E. coli
# Procedure, shortened: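 E. coli SIG10-MAX carried a low-copy plasmid library with eight randomized operator positions between a constitutive promoter and sfGFP, with TetR constitutively expressed. Cells grew 5 h at 37 °C in LB with 50 µg/mL chloramphenicol, then 10^6 cells were FACS-sorted into 13 fluorescence bins, each Illumina-sequenced. Repression strength is the top bin index plus one minus the read-weighted mean bin, divided by the wild-type operator value. Three independent transformations; variants with ≥30 reads in all replicates and CV ≤0.5 were averaged.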
# Chain of UniProt P04483 (P04483 whole entry): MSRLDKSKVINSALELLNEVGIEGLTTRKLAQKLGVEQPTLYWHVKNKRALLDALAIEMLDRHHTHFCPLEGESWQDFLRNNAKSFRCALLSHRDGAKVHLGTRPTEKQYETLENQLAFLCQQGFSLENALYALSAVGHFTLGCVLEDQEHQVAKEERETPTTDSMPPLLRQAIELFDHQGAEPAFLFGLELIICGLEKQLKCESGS
row,Sequence,TetR repression strength
1,TCCCTTTAAGTCCTTGAGA,0.207
2,TCCCGAGGAGTTTCTGAGA,0.509
3,TCCCCCGCAGTCTGCGAGA,0.125
4,TCCCGTGTAGTAGGAGAGA,0.17
5,TCCCTAAGAGTGGGTGAGA,0.129
6,TCCCGGAGAGTTCTGGAGA,0.193
7,TCCCGAGCAGTAGTAGAGA,0.378
8,TCCCCAAGAGTTAGCGAGA,0.305
9,TCCCGAGGAGTTAGAGAGA,0.141
10,TCCCACGTAGTCTACGAGA,0.348
11,TCCCTTATAGTATGGGAGA,0.0726
12,TCCCGGGAAGTCAGCGAGA,0.261
13,TCCCGCTGAGTGGGGGAGA,0.484
14,TCCCTTCAAGTGCGTGAGA,0.202
15,TCCCGAGTAGTTGCAGAGA,0.389
16,TCCCGCCTAGTGGGCGAGA,0.131
17,TCCCACCAAGTGTCAGAGA,0.326
18,TCCCTGGGAGTTTGCGAGA,0.187
19,TCCCTAGCAGTTATTGAGA,0.476
20,TCCCTAGCAGTCTGCGAGA,0.223
21,TCCCTCTGAGTTTGGGAGA,0.0119
22,TCCCCAGCAGTGCTTGAGA,0.311
23,TCCCTATAAGTGAGTGAGA,0.693
24,TCCCGCGAAGTATGAGAGA,0.4
25,TCCCAAACAGTCTGAGAGA,0.58
26,TCCCTAAGAGTAATCGAGA,0.183

row,Sequence,TetR repression strength
1,TCCCAGCCAGTCCTGGAGA,0.634
2,TCCCTTTAAGTTCGAGAGA,0.0484
3,TCCCTCGCAGTGTCAGAGA,0.181
4,TCCCGCCAAGTCCGTGAGA,0.625
5,TCCCTGTAAGTAAAGGAGA,0.286
6,TCCCATACAGTATAGGAGA,0.297
7,TCCCATGGAGTACGTGAGA,0.189
8,TCCCGGTTAGTTTTTGAGA,0.158
9,TCCCTATCAGTGCGCGAGA,0.487
10,TCCCTCTGAGTCGAGGAGA,0.282
11,TCCCTTGCAGTTGGGGAGA,0.275
12,TCCCCAGAAGTCGTTGAGA,0.061
13,TCCCAAGTAGTTTTCGAGA,0.224
14,TCCCAGCAAGTGATTGAGA,0.201
15,TCCCAGATAGTGATAGAGA,0.472
16,TCCCTGGCAGTGCGAGAGA,0.143
17,TCCCTGAAAGTTCTGGAGA,0.158
18,TCCCATCGAGTTGACGAGA,0.25
19,TCCCTATCAGTGACTGAGA,0.722
20,TCCCATACAGTTCATGAGA,0.194
21,TCCCGGGCAGTGTACGAGA,0.406
22,TCCCTATCAGTAGTCGAGA,0.537
23,TCCCTGTTAGTTTGTGAGA,0.4
24,TCCCGTCCAGTTTGAGAGA,0.227
25,TCCCATAGAGTGTGAGAGA,0.216
26,TCCCTATTAGTGTCAGAGA,0.194

row,Sequence,TetR repression strength
1,TCCCTTTTAGTTAGCGAGA,0.48
2,TCCCGCGGAGTGGGGGAGA,0.229
3,TCCCGATAAGTGGGGGAGA,0.152
4,TCCCAATAAGTCCAGGAGA,0.278
5,TCCCTATTAGTGTAGGAGA,0.0563
6,TCCCCCTCAGTGGGGGAGA,0.144
7,TCCCCTCGAGTGCATGAGA,0.334
8,TCCCTGGGAGTGTCGGAGA,0.17
9,TCCCGATAAGTTGCTGAGA,0.22
10,TCCCCATTAGTTCCGGAGA,0.569
11,TCCCATCGAGTTCATGAGA,0.17
12,TCCCGCAAAGTTGGGGAGA,0.42
13,TCCCTTTCAGTAATAGAGA,0.745
14,TCCCGGGCAGTATTCGAGA,0.136
15,TCCCTATCAGTTTGGGAGA,0.329
16,TCCCTGTGAGTTCGAGAGA,0.719
17,TCCCAGGGAGTACTTGAGA,0.234
18,TCCCGGTCAGTCGGAGAGA,0.277
19,TCCCGAACAGTGAAGGAGA,0.223
20,TCCCGCGGAGTTCGTGAGA,0.227
21,TCCCGCCCAGTTGGTGAGA,0.401
22,TCCCAGTAAGTATATGAGA,0.289
23,TCCCGTTGAGTGTGAGAGA,0.361
24,TCCCTGTAAGTTCTAGAGA,0.329
25,TCCCAGTTAGTATTCGAGA,0.341
26,TCCCCTGAAGTGGGGGAGA,0.182

row,Sequence,TetR repression strength
1,TCCCGATCAGTGACTGAGA,0.427
2,TCCCCGTAAGTCTATGAGA,0.331
3,TCCCTTATAGTAGGAGAGA,0.339
4,TCCCTATAAGTCAGGGAGA,0.324
5,TCCCAGACAGTCAAGGAGA,0.337
6,TCCCATTTAGTTGTCGAGA,0.162
7,TCCCTTTCAGTGCGGGAGA,0.234
8,TCCCGGCGAGTTGGGGAGA,0.0799
9,TCCCTATTAGTCTCAGAGA,0.132
10,TCCCTGTGAGTTGTTGAGA,0.109
11,TCCCGATCAGTGCCCGAGA,0.438
12,TCCCAGGTAGTTGTTGAGA,0.0622
13,TCCCACTCAGTTACAGAGA,0.358
14,TCCCCGTAAGTGCCGGAGA,0
15,TCCCACGTAGTTTCCGAGA,0.213
16,TCCCGATGAGTCATAGAGA,0.0429
17,TCCCCAACAGTGGATGAGA,0.251
18,TCCCTATCAGTTCCTGAGA,0.76
19,TCCCGGGCAGTGATAGAGA,0.571
20,TCCCGTGGAGTGAGGGAGA,0.225
21,TCCCGTCCAGTACATGAGA,0.104
22,TCCCTGGTAGTGGGGGAGA,0.208
23,TCCCTTCGAGTGCTAGAGA,0.37
24,TCCCGACTAGTCAAAGAGA,0.421
